*1 amine or outer side, *2 acyl side, *3 side chain or, on linkers, in order; H or OH if unused. Where a SMILES comes first, the peptide text is derived from it. [ ]: non-standard residue; d: D form. The star is where a group is joined. ξ: configuration not given here. ξ(3-Amino-2-oxohex-5-enoyl) = C=CCC(N[*:1])C(=O)C(=O)[*:2]; Pro(4,4-S(CH2)3S) = O=C(O)[C@@H]1CC2(CN1)SCCCS2; ξPro(4,4-S(CH2)3S) = O=C(O)C1CC2(CN1)SCCCS2; Pro(4-methylene) = C=C1CN[C@H](C(=O)O)C1; X104 = O=C(C(=O)[*:2])C1(N[*:1])CCCCC1; Isobutyloxycarbonyl = CC(C)COC(=O)*; X90 = CSCCC(N[*:1])C(=O)C(=O)[*:2]; X4 = CCCCC(N[*:1])C(=O)C(=O)[*:2]; X5 = CC(=O)O[C@H](C(=O)*)c1ccccc1; Hyp = O=C(O)[C@@H]1C[C@@H](O)CN1; X2 = CCCC(N[*:1])C(=O)C(=O)[*:2]; NMeChg = CN[CH](C(=O)O)C1CCCCC1; Chg = N[C@H](C(=O)O)C1CCCCC1; Phg = N[CH](C(=O)O)c1ccccc1; Tle = CC(C)(C)[C@H](N)C(=O)O; X3 = O=C([C@@H](O)c1ccccc1)*; ξPhg = NC(C(=O)O)c1ccccc1; PhAc = O=C(Cc1ccccc1)*; OtBu = CC(C)(C)O*; tBu = CC(C)(C)*
target: HCV NS3/NS4A protease (strain 1a) (Hepatitis C virus genotype 1a, UniProt P27958); assay: biochemical; details: HCV protease continuous assay results, Table 1; read-out: Ki* Range

CCCC(NC(=O)[C@@H]1C[C@@H](OC(C)(C)C)CN1C(=O)[C@@H](NC(=O)OCC(C)C)C1CCCCC1)C(=O)C(=O)NCC(=O)N[C@H](C(=O)OC(C)(C)C)c1ccccc1 (stereo partly drawn) [Example 205] (Isobutyloxycarbonyl-[Chg][Hyp](tBu)[X2]G[Phg]-OtBu) and CCCC(NC(=O)[C@@H]1C[C@@H](O)CN1C(=O)[C@@H](NC(=O)OCC(C)C)C1CCCCC1)C(=O)C(=O)NCC(=O)N[C@H](C(=O)O)c1ccccc1 (stereo partly drawn) [Example 206] (Isobutyloxycarbonyl-[Chg][Hyp][X2]G[Phg]-OH) fall in the same range of Ki: 101 to 1000 nM for the first, 101 to 1000 nM for the second.

Compared with CCCC(NC(=O)[C@@H]1C[C@@H](O)CN1C(=O)[C@@H](NC(=O)OCC(C)C)C1CCCCC1)C(=O)C(=O)NCC(=O)N[C@H](C(=O)N(C)C)c1ccccc1 (stereo partly drawn) [Example 207] (Isobutyloxycarbonyl-[Chg][Hyp][X2]G[Phg]-NMe2), CCCC(NC(=O)[C@@H]1C[C@@H](OC(C)(C)C)CN1C(=O)[C@@H](NC(=O)OCC(C)C)C(C)(C)C)C(=O)C(=O)NCC(=O)N[C@H](C(=O)N(C)C)c1ccccc1 (stereo partly drawn) [Example 219] (Isobutyloxycarbonyl-[Tle][Hyp](tBu)[X2]G[Phg]-NMe2) is lower in Ki: 101 to 1000 nM for the first, 1 to 100 nM for the second.

CCCC(NC(=O)[C@@H]1CC2(CN1C(=O)[C@@H](NC(=O)[C@@H](OC(C)=O)c1ccccc1)C(C)(C)C)SCCCS2)C(=O)C(=O)NCC(=O)NC(C(=O)N(C)C)c1ccccc1 (stereo partly drawn) [Example 208] (X5-[Tle][Pro(4,4-S(CH2)3S)][X2]G[ξPhg]-NMe2) and CCCC(NC(=O)[C@@H]1CC2(CN1C(=O)[C@@H](NC(=O)[C@@H](O)c1ccccc1)C(C)(C)C)SCCCS2)C(=O)C(=O)NCC(=O)NC(C(=O)N(C)C)c1ccccc1 (stereo partly drawn) [Example 210] (X3-[Tle][Pro(4,4-S(CH2)3S)][X2]G[ξPhg]-NMe2) fall in the same range of Ki: 1 to 100 nM for the first, 1 to 100 nM for the second.

First: CCCC(NC(=O)C1CC2(CN1C(=O)C(C1CCCCC1)N(C)C(=O)Cc1ccccc1)SCCCS2)C(=O)C(=O)NCC(=O)NC(C(=O)N(C)C)c1ccccc1 (stereo not drawn) [Example 215] (PhAc-[NMeChg][ξPro(4,4-S(CH2)3S)][X2]G[Phg]-NMe2; configuration not given here)
Second: CCCC(NC(=O)[C@@H]1CC2(CN1C(=O)[C@@H](NC(=O)Cc1ccccc1)C(C)(C)C)SCCCS2)C(=O)C(=O)NCC(=O)NC(C(=O)N(C)C)c1ccccc1 (stereo partly drawn) [Example 230] (PhAc-[Tle][Pro(4,4-S(CH2)3S)][X2]G[ξPhg]-NMe2)
The Ki of the first is higher: 101 to 1000 nM for the first, 1 to 100 nM for the second.

Compared with CCCC(NC(=O)[C@@H]1CC2(CN1C(=O)C(NC(=O)OC(C)(C)C)C(C)(C)C)SCCCS2)C(=O)C(=O)NCC(=O)O (stereo partly drawn) [Example 217], CCCC(NC(=O)[C@@H]1CC2(CN1C(=O)C(NC(=O)OC(C)(C)C)C(C)(C)C)SCCCS2)C(=O)C(=O)NCC(=O)NC(CO)c1ccccc1 (stereo partly drawn) [Example 220] is lower in Ki: greater than 1000 nM for the first, 1 to 100 nM for the second.

C=CCC(NC(=O)[C@@H]1C[C@@H](OC(C)(C)C)CN1C(=O)[C@@H](NC(=O)OCC(C)C)C(C)(C)C)C(=O)C(=O)NCC(=O)N[C@H](C(=O)N(C)C)c1ccccc1 (stereo partly drawn) [Example 218] (Isobutyloxycarbonyl-[Tle][Hyp](tBu)[ξ(3-Amino-2-oxohex-5-enoyl)]G[Phg]-NMe2) and CCCCC(NC(=O)[C@@H]1C[C@@H](OC(C)(C)C)CN1C(=O)[C@@H](NC(=O)OCC(C)C)C(C)(C)C)C(=O)C(=O)NCC(=O)N[C@H](C(=O)N(C)C)c1ccccc1 (stereo partly drawn) [Example 226] (Isobutyloxycarbonyl-[Tle][Hyp](tBu)[X4]G[Phg]-NMe2) fall in the same range of Ki: 1 to 100 nM for the first, 1 to 100 nM for the second.

CSCCC(NC(=O)[C@@H]1CC2(CN1C(=O)[C@@H](NC(=O)OCC(C)C)C(C)(C)C)SCCCS2)C(=O)C(=O)NCC(=O)NC(C(=O)N(C)C)c1ccccc1 (stereo partly drawn) [Example 222] (Isobutyloxycarbonyl-[Tle][Pro(4,4-S(CH2)3S)][X90]G[ξPhg]-NMe2) and C=C1C[C@@H](C(=O)NC(CCC)C(=O)C(=O)NCC(=O)N[C@H](C(=O)N(C)C)c2ccccc2)N(C(=O)[C@@H](NC(=O)OCC(C)C)C(C)(C)C)C1 (stereo partly drawn) [Example 227] (Isobutyloxycarbonyl-[Tle][Pro(4-methylene)][X2]G[Phg]-NMe2) fall in the same range of Ki: 1 to 100 nM for the first, 1 to 100 nM for the second.

First: CCCC(NC(=O)[C@@H]1CC2(CN1C(=O)C(NC(=O)OC(C)(C)C)C(C)(C)C)SCCCS2)C(=O)C(=O)NCC(=O)NC(COC)c1ccccc1 (stereo partly drawn) [Example 223]
Second: CC(C)COC(=O)N[C@H](C(=O)N1C[C@H](OC(C)(C)C)C[C@H]1C(=O)NC1(C(=O)C(=O)NCC(=O)N[C@H](C(=O)N(C)C)c2ccccc2)CCCCC1)C(C)(C)C [Example 234] (Isobutyloxycarbonyl-[Tle][Hyp](tBu)[X104]G[Phg]-NMe2)
The Ki of the first is lower: 101 to 1000 nM for the first, greater than 1000 nM for the second.

CC[C@@H](C)C(NC(=O)[C@@H]1C[C@@H](OC(C)(C)C)CN1C(=O)C(NC(=O)OCC(C)C)C(C)(C)C)C(=O)C(=O)NCC(=O)OC (stereo partly drawn) [Example 224] and CC[C@H](C)C(NC(=O)[C@@H]1C[C@@H](OC(C)(C)C)CN1C(=O)C(NC(=O)OCC(C)C)C(C)(C)C)C(=O)C(=O)NCC(=O)OC (stereo partly drawn) [Example 235] cannot be ordered by Ki: greater than 1000 nM for the first, greater than 1000 nM for the second.

CC[C@@H](C)C(NC(=O)[C@@H]1C[C@@H](OC(C)(C)C)CN1C(=O)C(NC(=O)OCC(C)C)C(C)(C)C)C(=O)C(=O)NCC(=O)O (stereo partly drawn) [Example 225] and CC(C)COC(=O)N[C@H](C(=O)N1C[C@H](OC(C)(C)C)C[C@H]1C(=O)NC1(C(=O)C(=O)NCC(=O)O)CCCCC1)C(C)(C)C [Example 233] cannot be ordered by Ki: greater than 1000 nM for the first, greater than 1000 nM for the second.

For COC(=O)CNC(=O)C(=O)C1(NC(=O)[C@@H]2C[C@@H](OC(C)(C)C)CN2C(=O)[C@@H](NC(=O)OCC(C)C)C(C)(C)C)CCCCC1 [Example 232], the Ki was greater than 1000 nM.

Source: patent US7592316B2, “Peptides as NS3-serine protease inhibitors of hepatitis C virus” (Schering Corporation, priority 2000, dated 2009)
